From PubChem BioAssay AID686979 (National Center for Advancing Translational Sciences (NCATS), 2013)
Out of some 420,000 compounds screened, about 50,000 (12%) were called active. The inconclusive results got no clear call from the source; some entries with a clear call stand among them for comparison. Calls follow the shape of the dose curve; as a rule, active = well fitted inhibition curve with a large enough effect; inconclusive = small, poorly fitted or top-dose-only effect; inactive = flat fitted curve, though single readings scatter. No potency is given beside an inconclusive call; the fits are too rough.

Assay: qHTS for Inhibitors of human tyrosyl-DNA phosphodiesterase 1 (TDP1): qHTS in cells in presence of CPT; also: nearly all actives have a fitted effect of over 55% in size
Conditions: chicken DT40 Tdp1-/-;hTDP1 cells + 20 nM CPT, ATP luminescence, 48 h; activity change, negative = growth inhibition: at 46.2 µM (top of the series)
How it was run: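 Chicken DT40 Tdp1-/- cells complemented with human TDP1, 400 cells/well, exposed to compounds plus 20 nM camptothecin for at least 48 h at 37 C; viability read as ATP content by CellTiter-Glo luminescence.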
% is scaled to controls: 0 for no effect and ±100 for the full control effect; potency is read from the fitted curve at half-maximal effect; tags tell the direction and shape of the fitted curve.

| Compound | Potency | activity change, negative = growth inhibition |
| --- | --- | --- |
| CC(C)C(=O)N(c1ccc(F)cc1)C1C=CS(=O)(=O)C1 (centres undefined) | inconclusive [inhibitor, partial curve, poor fit] | – |
| CN(CC(=O)Nc1c(Cl)cccc1Cl)C(=O)CCC(=O)c1ccccc1 | inactive | – |
| CC(C)C(NC(=O)OCc1ccccc1)C(=O)NC(Cc1c[nH]c2ccccc12)C(=O)O (centres undefined) | inactive | – |
| CCCN1CCN(c2cc3c(cc2F)c(=O)c(S(=O)(=O)c2ccc(Cl)cc2)cn3C)CC1 | inconclusive [inhibitor, single point] | – |
| COc1ccc2cc3c(nc2c1)OCC3 | inactive | – |
| N#Cc1ccccc1CSc1nc(O)cc(=O)[nH]1 | inactive | – |
| O=C(CC[C@H]1O[C@@H](n2cnc3c(NC(=O)c4ccccc4)ncnc32)[C@H](O)[C@@H]1O)NCCCN1CCCC1=O | inactive | – |
| O=C(NC1CC(=O)N(c2cccc(F)c2)C1)C(c1ccccc1)c1ccccc1 (centres undefined) | inconclusive [inhibitor, single point] | – |
| O=S(=O)(NCCc1ccc(F)cc1)c1ccc(F)cc1Br | inconclusive [inhibitor, single point] | – |
| CC/C(O)=C1\C(=O)CC(c2ccccc2)CC1=NCCc1c(C)[nH]c2ccc(C)cc12 (centres undefined) | inconclusive [inhibitor, single point] | – |
| CCOC(=O)c1ccc(N2C(=O)c3n[nH]c(-c4ccco4)c3C2c2ccc([N+](=O)[O-])cc2)cc1 (centres undefined) | active: 23.1 µM | – |
| CCC1(C2C=COC=C2)NC(=O)NC1=O (centres undefined) | inactive | – |
| O=S(=O)(NCc1cccs1)NCc1ccccc1F | inactive | – |
| Cc1ccc(NC(=O)OC(C)N2CCCCC2)cc1NC(=O)OC(C)N1CCCCC1 (centres undefined) | inactive | – |
| CCc1cc2c(-c3ccccc3)cc(=O)oc2c2c1OCN(Cc1ccc(F)cc1)C2 | – | inconclusive: -32.7% [inhibitor] |
| Cc1ccnc(NS(=O)(=O)c2ccc(NC(=O)c3cc(-c4ccc(Br)cc4)nc4ccccc34)cc2)n1 | inconclusive [inhibitor, single point] | – |
| CCOc1ncccc1C(=O)Nc1ccc2nc(C)sc2c1 | – | inconclusive: -31.6% [inhibitor] |
| C[C@H](CCC(=O)O)[C@H]1CC[C@@H]2[C@H]3CC[C@H]4C[C@H](O)CC[C@]4(C)[C@@H]3CC[C@@]21C | inactive | – |
| CC(C)c1nc2sc3c(=O)[nH]c(=S)[nH]c3c2c2c1CCCC2 | inactive | – |
| Oc1cccc(-c2ccc3nccn3c2)c1 | inconclusive [inhibitor, partial curve] | – |
| CN(C(=S)Nc1ccc(SC(F)F)cc1)C(c1ccccc1)c1ccccc1 | inconclusive [inhibitor, single point] | – |
| Cc1ccc(Nc2cc(C)nc3nc(C)nn23)c(C)c1 | inconclusive [inhibitor, partial curve] | – |
| C[C@H](NC(=O)c1nc[nH]c1C(=O)N[C@@H](CCCCN)C(=O)OC(C)(C)C)C(=O)OCc1ccccc1 | inactive | – |
| CC(C)(C)CC(C)(C)Nc1c(-c2ccc(O)cc2)nc2cnccn12 | active: 18.4 µM | – |
| CCC1(c2ccccc2)SCC(c2ccccc2)=NC1=O (centres undefined) | inactive | – |

| Compound | Potency | activity change, negative = growth inhibition |
| --- | --- | --- |
| COC(=O)c1ccccc1NC(=O)c1ccc2c(=O)n3c(nc2c1)CCCCC3 | inconclusive [inhibitor, partial curve] | – |
| COc1ccc(CCn2c(C)cc(C(=O)COC(=O)c3ccc(O)cc3O)c2C)cc1 | inconclusive [inhibitor, single point] | – |
| CCC(Oc1ccccc1)C(=O)Nc1ccc(OCc2cc(=O)n3ccccc3n2)cc1 (centres undefined) | inconclusive [inhibitor, partial curve] | – |
| O=c1nc(-c2ccccc2)cc(-c2ccccc2)[nH]1 | inactive | – |
| O=C(COc1ccc2c(-c3ccccc3)cc(=O)oc2c1)NCCN1CCOCC1 | inconclusive [inhibitor, single point] | – |
| Cc1nc2ccccc2n1C(=O)c1ccc(Cl)cc1[N+](=O)[O-] | inactive | – |
| CC(NC(=O)COC(=O)/C(=C/c1cccs1)c1cccs1)c1ccccc1 (centres undefined) | inconclusive [inhibitor, single point] | – |
| CCOc1ccc(NC(=O)CC2C(=O)N(C)C(=S)N2CCCc2ccccc2)cc1 (centres undefined) | inactive | – |
| O=C(CN1C=NS(=O)(=O)c2ccc(C(F)(F)F)cc21)Nc1cccc(C(F)(F)F)c1 | inactive | – |
| CCOC(=O)c1cc(NC(=O)c2ccc(Cl)cc2)c(=O)n2c1oc1ccccc12 | inactive | – |
| COc1ccc(Nc2c3c(nc4ccc(NC(=O)/C=C/c5cccc(OC)c5OC)cc24)CCCC3)cc1OC | active: 2.31 µM | – |
| COc1ccc(-c2ncc(CN3CCC(CO)(Cc4cccc(OC)c4)CC3)cn2)cc1 | inconclusive [inhibitor, single point] | – |
| CCC(=O)Nc1ccc2c(c1)ncn2-c1ccccc1OC | inconclusive [inhibitor, single point] | – |
| COC(CNC(=O)C1CCCN(S(=O)(=O)c2ccc3c(c2)oc(=O)n3C)C1)OC (centres undefined) | inactive | – |
| COc1ccccc1NC(=O)c1ccc(NC(=O)COC(=O)C(C)C)cc1 | inconclusive [inhibitor, single point] | – |
| O=[N+]([O-])c1ccc2c(c1)C=C1CCCCC1(N1CCCC1)O2 (centres undefined) | inactive | – |
| CN(Cc1ccccc1)C(=O)CN1CCN(S(=O)(=O)c2ccc(Cl)c(Cl)c2)CC1 | inconclusive [inhibitor, single point] | – |
| O=S(=O)(c1ccc(Cl)cc1)c1nc(-c2ccccc2)oc1N1CCN(c2ccccc2)CC1 | inconclusive [inhibitor, single point] | – |
| COc1ccc(C)cc1-n1c(=O)c2ccccc2c2ccccc2c1=O | inactive | – |
| O=C(NCCc1ccc(C(F)(F)F)cc1)c1ccc2c(c1)OCO2 | inactive | – |
| c1ccc(N2N=C(c3cccs3)CC2c2ccco2)cc1 (centres undefined) | inactive | – |
| O=C(Nc1ccc(Br)cc1)c1cccc(C(=O)Nc2ccc(Br)cc2)c1 | inconclusive [inhibitor, single point] | – |
| Cc1ccc(NC(=O)CSC2=NN3CCCC(=O)N=C3S2)cc1Cl | inconclusive [inhibitor, partial curve] | – |
| Cc1cccc(C)c1NC(=O)c1csc([C@@H]2O[C@H](CO)[C@H](O)[C@H](O)[C@H]2O)n1 | inactive | – |
| CCOC(=O)c1cccc(NC(=O)CSc2nc3cccnc3n2C)c1 | active: 20.6 µM | – |

| Compound | Potency | activity change, negative = growth inhibition |
| --- | --- | --- |
| CCCCOC(=O)c1ccc(NC(=O)c2ccc(F)cc2F)cc1 | inactive | – |
| CC(C)NC(=O)/C(C#N)=C/c1cccc(NC(=O)c2ccccc2Cl)c1 | inconclusive [inhibitor, partial curve, poor fit] | – |
| C/C(=N\NC(=O)c1ccc(Cn2cc([N+](=O)[O-])cn2)o1)c1cccc(NC(=O)C(C)C)c1 | – | inconclusive: -31.9% [inhibitor] |
| CCn1c(/C(C#N)=C/c2ccccc2Cl)nc2ccccc21 | inconclusive [inhibitor, single point] | – |
| CCc1cccc(NC(=O)CSc2nc3ccsc3c(=O)n2CC)c1 | inconclusive [inhibitor, single point] | – |
| COC(=O)c1cc(=O)n(Cc2ccco2)c(=Nc2ccc(F)c(Cl)c2)s1 | active: 16.4 µM | – |
| CN(C(=O)CSc1nnc(-c2ccco2)n1Cc1ccccc1)C1CCS(=O)(=O)C1 (centres undefined) | inactive | – |
| Cc1ccc(C)c(NC(=O)CN(C)C(=O)c2cc(C3CC3)nn2-c2ccccc2)c1 | active: 16.4 µM | – |
| COc1cc(C2NCC(c3ccc(Cl)cc3Cl)c3c2[nH]c2ccccc32)cc(OC)c1OC (centres undefined) | inconclusive [inhibitor, partial curve] | – |
| CCOc1ccc(C2CC(=O)c3c([nH]c(C(=O)OC4CCC(C)CC4)c3C)C2)cc1 (centres undefined) | inactive | – |
| CSc1ccccc1OCc1cc(C(=O)N(C)Cc2ccc(C)o2)no1 | active: 16.4 µM | – |
| CCOC(=O)Cc1csc(NC(=O)CSC2=NCCS2)n1 | inconclusive [inhibitor, single point] | – |
| COc1ccccc1NC(=O)N1CCN(c2ccccc2F)CC1 | inactive | – |
| CCOC(=O)N1CCc2c(sc3nc(SC(C)C)n(N)c(=O)c23)C1 | active: 9.2 µM | – |
| c1ccc(-c2ccc(-c3csc4ncnc(Sc5nnnn5-c5ccccc5)c34)cc2)cc1 | active: 7.08 µM | – |
| C[C@H](CO)N1C[C@H](C)[C@@H](CN(C)C(=O)Nc2ccc3c(c2)OCO3)Oc2ccc(NC(=O)C3CCCCC3)cc2C1=O | inactive | – |
| Cc1ccc(CN(Cc2cccn2-c2nnc(N3CCCC3=O)s2)C(=O)Nc2ccccc2C(F)(F)F)cc1 | inconclusive [inhibitor, single point] | – |
| COc1ccc(-n2c(C)cc(C(=O)CSc3nnc(-c4cccs4)o3)c2C)cc1 | active: 16.4 µM | – |
| COc1ccc(C(=O)N/N=C/c2ccc(OC)c(COc3c(F)c(F)cc(F)c3F)c2)cc1 | inconclusive [inhibitor, partial curve] | – |
| CCn1c2ccccc2c2cc(N)ccc21 | active: 25.9 µM | – |
| Oc1ccc2c(c1)C1CCCC1(N1CCOCC1)O2 (centres undefined) | active: 23.1 µM | – |
| Cc1ccc(Cn2c(Sc3nnc(C)s3)nc3c2c(=O)[nH]c(=O)n3C)cc1 | inconclusive [inhibitor, partial curve] | – |
| Cn1c(=O)n(C)c2cc([N+](=O)[O-])c(N3CCN(C(=O)C(C)(C)C)CC3)cc21 | active: 16.4 µM | – |
| O=C(Cn1c(S(=O)(=O)Cc2ccccc2)nc2ccccc21)N1CCCCC1 | inconclusive [inhibitor, partial curve, poor fit] | – |
